Source: PMC4336329 (PLoS ONE, 2015)
The whole screen tested about 310,000 compounds, of which about 2,200 (0.71%) showed an effect of 50% or more. Effects have a minus sign here. Some of the results follow.

target: human ether-à-go-go-related gene (hERG) potassium channel (human, UniProt Q12809); assay: primary screen, population patch clamp on CHO cells stably expressing hERG
Sequence (Q12809 whole entry, looked up): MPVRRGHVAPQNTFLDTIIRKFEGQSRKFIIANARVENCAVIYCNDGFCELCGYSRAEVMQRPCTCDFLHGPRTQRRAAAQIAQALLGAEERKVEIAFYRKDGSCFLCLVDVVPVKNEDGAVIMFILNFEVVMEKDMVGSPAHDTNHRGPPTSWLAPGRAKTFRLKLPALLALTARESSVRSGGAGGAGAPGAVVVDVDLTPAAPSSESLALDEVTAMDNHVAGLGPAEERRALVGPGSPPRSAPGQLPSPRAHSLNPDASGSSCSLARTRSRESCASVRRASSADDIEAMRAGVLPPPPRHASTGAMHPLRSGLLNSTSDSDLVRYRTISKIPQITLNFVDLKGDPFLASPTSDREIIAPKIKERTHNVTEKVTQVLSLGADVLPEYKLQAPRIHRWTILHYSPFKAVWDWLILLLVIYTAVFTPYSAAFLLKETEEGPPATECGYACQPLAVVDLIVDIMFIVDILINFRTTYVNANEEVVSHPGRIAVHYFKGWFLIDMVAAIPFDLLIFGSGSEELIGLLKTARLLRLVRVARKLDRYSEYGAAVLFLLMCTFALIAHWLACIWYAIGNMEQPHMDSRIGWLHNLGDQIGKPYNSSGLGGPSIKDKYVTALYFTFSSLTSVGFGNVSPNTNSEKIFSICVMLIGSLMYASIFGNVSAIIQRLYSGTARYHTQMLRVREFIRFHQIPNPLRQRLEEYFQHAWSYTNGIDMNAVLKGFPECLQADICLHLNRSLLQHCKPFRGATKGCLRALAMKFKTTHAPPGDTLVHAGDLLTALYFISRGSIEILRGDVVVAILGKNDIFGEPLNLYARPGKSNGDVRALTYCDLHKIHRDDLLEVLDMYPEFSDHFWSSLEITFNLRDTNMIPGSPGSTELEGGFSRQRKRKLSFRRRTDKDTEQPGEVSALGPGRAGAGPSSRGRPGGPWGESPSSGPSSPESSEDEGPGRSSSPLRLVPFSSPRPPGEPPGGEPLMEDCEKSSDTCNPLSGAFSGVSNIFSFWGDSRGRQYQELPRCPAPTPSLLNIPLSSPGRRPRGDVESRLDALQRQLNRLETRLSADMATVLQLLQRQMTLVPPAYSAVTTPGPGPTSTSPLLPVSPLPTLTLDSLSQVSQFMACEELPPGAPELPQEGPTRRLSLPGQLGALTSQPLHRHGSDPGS

Row | Structure (SMILES) | hERG current change (%, negative = inhibition) at 1uM [%]
1 | COc1cccc(CNc2ccc(C(=O)O)cc2)c1OCc1ccccc1 | 4.32
2 | CCOC(=O)C(NC(=O)NCc1cccc(C(F)(F)F)c1)(OCC)C(F)(F)F (stereo not shown) | 17.4
3 | CCc1cc2cc(C)cc(C)c2nc1Cl | 13.4
4 | C1CCN(c2nc3nonc3nc2N2CCCC2)C1 | 14.4
5 | O=c1[nH][nH]cc1C=Nc1ccccc1O | 14.5
6 | COc1ccc(Nc2ncc(C(=O)N3CCN(c4ccc(F)cc4)CC3)c3ccccc23)cc1 | 9.89
7 | Cc1cc(NC(=O)COc2cccc([N+](=O)[O-])c2)no1 | 13.6
8 | O=C(CN(Cc1cccs1)C(=O)CNS(=O)(=O)c1ccccc1)NC1CCCC1 | 8.05
9 | O=S(=O)(c1ccc2c(c1)C(O)c1ccccc1CC2)C(F)(F)F (stereo not shown) | 7.39
10 | COc1ccc(C(=O)Nc2cccc3ccccc23)cc1 | 7.82
11 | Cc1cc(C)c(C)c(S(=O)(=O)N2CCC(C(=O)NC3=NCCS3)CC2)c1C | 4.55
12 | CCCn1cc(CN2CCC(n3nccc3NC(=O)c3ccc4c(c3)OCO4)CC2)c(C)n1 | 10
13 | CCOc1cc(Br)c(C(C)NC(=O)c2cccnc2)cc1OCC (stereo not shown) | 0.331
14 | CCCOC(=O)c1ccc(Oc2cn[nH]c2-c2ccc(OCC(=O)NN)cc2O)cc1 | 8.32
15 | Cc1cc(NS(=O)(=O)c2ccc(NC(=O)c3cc(-c4ccccc4Cl)nc4ccccc34)cc2)no1 | 2.9
16 | COc1ccc(Cl)cc1N(CC(=O)N/N=C/c1ccc(OC(C)C)cc1)S(=O)(=O)c1ccc(C)c([N+](=O)[O-])c1 | 11.1
17 | CCOc1ccc(N(C(C)C(=O)NC(C)CC)S(C)(=O)=O)cc1 (stereo not shown) | 13.5
18 | COCCN(C(=S)Nc1c(C)cccc1C)C(C)c1ccco1 (stereo not shown) | 12.9
19 | Cc1ccc(C)c(N(CC(=O)NCCSCc2ccco2)S(C)(=O)=O)c1 | 7.62
20 | O=C(CSc1n[nH]c(=O)n1C1CC1)c1c[nH]c2ccccc12 | 9.49
21 | Cc1noc(C)c1S(=O)(=O)N1CCC(C(N)=O)CC1 | 10
22 | CSc1nnc(-c2cc(Br)ccc2N=Cc2c(C)[nH]n(-c3ccccc3)c2=O)c(=O)[nH]1 | 2.57

Row | Structure (SMILES) | hERG current change (%, negative = inhibition) at 1uM [%]
23 | C#CCNC(=O)/C=C/c1ccc(OC)cc1 | 7.68
24 | CCOC(=O)C1C(c2ccc(O)c(OC)c2)NC(=O)NC1(O)C(F)(F)F (stereo not shown) | 12.3
25 | Cn1c(N)c(C(=O)COC(=O)C23CC4CC(CC(C4)C2)C3)c(=O)n(C)c1=O | 7.15
26 | CN(C)CCC(=O)NCC1OCCc2ccccc21 (stereo not shown) | 5.63
27 | COc1ccc(NC(=O)c2ccc(Cl)c(NC(=O)c3ccncc3)c2)cc1 | 5.41
28 | COc1cccc(-n2c(C)cc(/C=C3\C(=N)N4N=C(CC(=O)N5CCOCC5)SC4=NC3=O)c2C)c1 | 2.93
29 | Cc1cccn2c(CN3CCSCC3)c(C(=O)N3CCOCC3)nc12 | -1.36
30 | Cc1cc(F)ccc1NC(=O)C1CCN(C(=O)Nc2ccccc2)CC1 | 9.12
31 | O=C(NC(Cc1ccccc1)c1ccc2c(c1)OCCCO2)c1ccccc1F (stereo not shown) | -9.55
32 | COc1cc(/C=N/NC(=O)c2cc(-c3cccc(Br)c3)nc3ccccc23)cc(OC)c1O | 14.5
33 | COc1ccc(NC(=O)c2cccs2)cc1NC(=O)c1ccco1 | 5.06
34 | C=CCOC(=O)c1[nH]c2c(c1C)C(=O)CC(c1cc(OC)c(OC)c(OC)c1)C2 (stereo not shown) | -19.4
35 | COc1cccc2c(=O)cc(C)n(CC(=O)Nc3cccc(C)c3)c12 | -6.13
36 | CCOc1ccc(/C=N/NC(=O)c2c(C)n(C)c3ccc(OC)cc23)cc1 | 5.94
37 | Clc1cc2nc(-c3cccnc3Cl)[nH]c2cc1Cl | 21
38 | COC(=O)c1ccc(CSc2ncnc3c2oc2ccccc23)o1 | -2.27
39 | Cc1ccc(Oc2ccc(NC(=O)c3ccco3)cc2)cc1 | -0.0758
40 | O=Cc1c(-c2ccccc2)nc2ccccn12 | 7.44
41 | COC(=O)C1NN=C(C(=O)c2ccc(Br)cc2)C1c1cccc(Br)c1 (stereo not shown) | 7.02
42 | CCC(=O)N1CCc2cc(S(=O)(=O)N3CCN(C(=O)c4ccco4)CC3)ccc21 | 4.69
43 | CCOC(=O)c1ccc(N=c2sc(C(=O)OC)cc(=O)n2-c2ccc(C(=O)OCC)cc2)cc1 | 9.64
44 | COc1ccccc1/C=N/NC(=O)CC(=O)Nc1ccc(Cl)c(Cl)c1 | 6.07

Row | Structure (SMILES) | hERG current change (%, negative = inhibition) at 1uM [%]
45 | COc1c(/C=N/NC(=O)[C@H]2C[C@@H]2c2ccccc2)c(CCN(C)C(C)=O)cc2c1OCO2 | 4.48
46 | O=c1[nH]c2cc(Cl)ccc2c(O)c1-c1cccc(Oc2ccccc2)c1 | 6.2
47 | COc1ccc(NC(=O)CSc2nc3c(c(=O)n(C)c(=O)n3C)n2C)c(OC)c1 | 13
48 | O=S(=O)([O-])CCC[n+]1c(SCCCS(=O)(=O)O)sc2ccc(Cl)cc21 | 3.55
49 | CC(C)(C)c1ccc(OC(=O)Cn2c(C(F)(F)F)nc3ccccc32)cc1 | 4.35
50 | CCOc1cccc(/C(O)=C2/C(=O)C(=O)N(Cc3cccnc3)C2c2ccco2)c1 (stereo not shown) | 1.86
51 | CCc1ccc(N2CC(C(=O)OCc3nc4ccsc4c(=O)[nH]3)CC2=O)cc1 (stereo not shown) | 1.64
52 | CC1CCN(CCOc2ccccc2-c2ccccc2)CC1.O=C(O)C(=O)O | -8.4
53 | O=S(=O)(Nc1ccc(-c2ccc(N3CCOCC3)nn2)cc1)c1cc(Cl)ccc1Cl | 4.11
54 | O=C(c1cccc(F)c1F)N1CCCC1 | 21.2
55 | Cc1sc2ncnc(N3CCN(S(=O)(=O)c4ccc(Br)cc4)CC3)c2c1C | 5.06
56 | NC(=S)c1cc2cc(Br)ccc2oc1=O | 12.4
57 | CCN1C(=O)/C(=C/c2nc3ccccc3c(=O)[nH]2)c2ccccc21 | 10.5
58 | COC(=O)c1ccccc1NC(=O)c1noc2c1CCC2 | 3.69
59 | CCOC(=O)c1ccc(S(=O)(=O)N2CCN(C(=O)C3CSC4(C)CCC(=O)N34)CC2)cc1 (stereo not shown) | 5.77
60 | O=C1OC(Cc2ccccn2)C(O)=C1C1=NCCCN1 (stereo not shown) | -2.79
61 | CCn1c(C(O)c2ccc(C)cc2)nc2ccccc21 (stereo not shown) | -1.37
62 | O=C(/C=C/c1ccccc1)OCCN=C1NS(=O)(=O)c2ccccc21 | 5.06
63 | CC(C)n1nnc2ccccc2c1=O | 12.8
64 | O=C(O)C1CC(=O)N(C2CCCCC2)C1c1ccccc1 (stereo not shown) | 11.1
65 | Cc1cc(C)cc(SCc2noc(C(=O)NCCN(C)C)c2C(=O)NCCN(C)C)c1 | 8.94
66 | Cc1cccc(-n2cc(-c3ccccc3)c3c(=O)[nH]cnc32)c1 | 7.63

Row | Structure (SMILES) | hERG current change (%, negative = inhibition) at 1uM [%]
67 | O=C(COC(=O)c1ccc(Cl)nc1)NCc1ccc2c(c1)OCO2 | 10.2
68 | O=C(c1cccs1)N1CCC(c2nc(-c3ccc(S(=O)(=O)N4CCOCC4)cc3)no2)CC1 | -40.3
69 | CO/N=C/NC(=O)NOCc1ccc(Cl)cc1Cl | 6.43
70 | O=C(CCC(=O)c1cccs1)NCc1cccc(Cl)c1 | 7.01
71 | Cc1cc(/C=N/n2cnnc2)c(C)n1-c1ccc2ncccc2c1 | -7.25
72 | Cc1ccc(NC(=O)COC(=O)CCC2CCCC2)c(Br)c1 | 16
73 | COc1ccc(/C=C2\SC(=S)N(CCCC(=O)NC3CCCC3)C2=O)cc1OC | 0.0267
74 | Cc1cccc(OCCCSc2nc3ccccc3[nH]2)c1 | 7.86
75 | CCOC(=O)N1CCN(C(=O)COc2ccc(S(=O)(=O)NC3CCCCC3)cc2C)CC1 | -0.53
76 | CSCCC(NC(=O)COc1ccccc1)C(=O)O (stereo not shown) | 9.67
77 | COc1ccc(N2C(=O)NC(=O)/C(=C\c3ccc([N+](=O)[O-])s3)C2=O)cc1 | 14
78 | COc1ccc(C(=O)c2ccccc2)c(OCC(=O)NC2CC2)c1 | 16.9
79 | Cc1ccccc1NC(=O)CSCc1cc(=O)n2ccsc2n1 | 13.7
80 | CC(NC(=O)COC(=O)CCNC(=O)c1ccco1)C12CC3CC(CC(C3)C1)C2 (stereo not shown) | 6.68
81 | Cc1ccc(NCc2nnc(SCC(=O)c3ccccc3)o2)c(C)c1 | 14.9
82 | CC(=NCCc1c(C)[nH]c2ccc(OC(F)(F)F)cc12)C1=C(O)CC(c2ccccc2)CC1=O (stereo not shown) | 11.9
83 | Cc1cccc(N2CCN(Cc3cnc(Cl)s3)CC2C)c1 (stereo not shown) | 5
84 | O=C(N/N=C/c1ccc(OC(=O)c2cccs2)cc1)c1ccccn1 | 8.31
85 | C=CCNC(=S)Nc1ccc(C)cc1[N+](=O)[O-] | 3.74
86 | CC(C(=O)NC1(C#N)CCCCC1)N(C)CC(=O)Nc1ccc(Cl)c(Cl)c1 (stereo not shown) | 8.32
87 | COc1cc(/C=N\NC(=O)CC(=O)NCCc2ccccc2)ccc1O | 7.16
88 | COC(=O)[C@@H](NC(=O)NCCC1=CCCCC1)C(C)C | 9.52
